Assay [1] deals with Flag-SMAD3 (SMAD Family Member 3) (human) (UniProt P84022). The assay is described as follows: co-IP; lysates of HeLa WT cells overexpressing Flag-SMAD3 and PINK1-WT-V5 or PINK1-KD-V5.
Assay [2] has the same target. The assay is described as follows: co-IP; cells with Parkin expression (Supplementary Fig. S6c, d; legend not shown); co-IP of PINK1 and SMAD3.
Assay [3] has the same target. Briefly: co-IP; lysates of HeLa WT cells (no Parkin) overexpressing Flag-SMAD3 and/or PINK1-MYC; reciprocal co-IP with anti-FLAG or anti-MYC and magnetic beads, Pierce IP lysis buffer, washed with TBST, western blotting.
The target is the same in assay [4]. Briefly: co-IP; lysates of HeLa WT cells overexpressing Flag-SMAD3, treated with/without O/A (1/1 μM) for 4 h; endogenous PINK1 detected in the precipitate.

By UniProt entry, the sequences of proteins in these tests, tags left out. Where a name states a change or a piece, a line headed by the entry shows the natural chain unless it says otherwise. Chains listed by the source or under a name are the forms on record and can include a tag or linker. Residues count along the entry.
UniProt P84022: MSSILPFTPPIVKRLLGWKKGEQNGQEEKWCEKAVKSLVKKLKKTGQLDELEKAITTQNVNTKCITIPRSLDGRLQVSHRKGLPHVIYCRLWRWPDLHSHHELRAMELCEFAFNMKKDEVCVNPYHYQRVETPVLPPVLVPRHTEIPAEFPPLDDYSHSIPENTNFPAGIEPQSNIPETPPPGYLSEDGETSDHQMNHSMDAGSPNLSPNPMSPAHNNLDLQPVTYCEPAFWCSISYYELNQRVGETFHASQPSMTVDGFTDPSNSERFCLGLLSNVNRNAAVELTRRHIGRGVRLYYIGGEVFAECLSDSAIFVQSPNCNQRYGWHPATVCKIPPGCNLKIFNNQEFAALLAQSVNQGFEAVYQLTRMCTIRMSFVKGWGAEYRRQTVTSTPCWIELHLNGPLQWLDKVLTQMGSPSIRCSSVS
endogenous PINK1 (Q9BXM7, residues 78-581): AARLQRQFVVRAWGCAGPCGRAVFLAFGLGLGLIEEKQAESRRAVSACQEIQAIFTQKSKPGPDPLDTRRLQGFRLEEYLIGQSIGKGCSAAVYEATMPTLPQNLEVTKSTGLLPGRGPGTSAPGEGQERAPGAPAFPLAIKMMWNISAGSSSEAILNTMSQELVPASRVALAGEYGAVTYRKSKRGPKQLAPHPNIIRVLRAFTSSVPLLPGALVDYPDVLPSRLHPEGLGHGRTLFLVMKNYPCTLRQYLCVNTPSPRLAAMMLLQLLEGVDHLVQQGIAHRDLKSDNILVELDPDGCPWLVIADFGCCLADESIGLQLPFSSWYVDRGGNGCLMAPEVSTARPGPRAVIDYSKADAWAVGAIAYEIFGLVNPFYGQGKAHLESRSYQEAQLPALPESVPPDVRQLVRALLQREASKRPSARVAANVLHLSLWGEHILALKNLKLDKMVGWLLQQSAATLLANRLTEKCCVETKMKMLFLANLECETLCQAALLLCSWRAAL
PINK1-KD-V5 (PINK1 kinase-dead mutant, K219A/D362A/D384A) (Q9BXM7, form named): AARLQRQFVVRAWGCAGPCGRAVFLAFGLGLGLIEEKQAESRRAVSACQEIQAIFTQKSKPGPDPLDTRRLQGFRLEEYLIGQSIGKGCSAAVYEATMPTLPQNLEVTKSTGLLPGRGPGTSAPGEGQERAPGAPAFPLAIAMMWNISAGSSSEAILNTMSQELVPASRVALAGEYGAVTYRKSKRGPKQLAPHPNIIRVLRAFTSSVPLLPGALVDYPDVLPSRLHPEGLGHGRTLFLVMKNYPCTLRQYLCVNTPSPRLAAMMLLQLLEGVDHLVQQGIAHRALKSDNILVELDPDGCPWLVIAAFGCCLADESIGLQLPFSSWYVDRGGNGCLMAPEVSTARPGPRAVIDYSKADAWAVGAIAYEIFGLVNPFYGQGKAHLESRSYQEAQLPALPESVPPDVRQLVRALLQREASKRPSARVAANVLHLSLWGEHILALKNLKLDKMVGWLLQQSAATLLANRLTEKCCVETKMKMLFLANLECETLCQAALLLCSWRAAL

No constants are given. Whether binding was seen depends on the method and setting. Binding seen in cells or lysates may run through a third protein. Some entries that bind do so weakly or less than the wild type.

On to “PINK1-KD-V5 (PINK1 kinase-dead mutant, K219A/D362A/D384A) (from UniProt Q9BXM7 78-581)”, for which the binding entry in assay [1] was “no binding”.
Regarding “PINK1-MYC (PTEN-induced kinase-1) (from UniProt Q9BXM7 78-581)”, the binding result in assay [2] and in assay [3] was “binds” in each case.
In the case of “PINK1-WT-V5 (from UniProt Q9BXM7 78-581)”, the binding entry in assay [1] is “binds”.
As for “endogenous PINK1 (from UniProt Q9BXM7 78-581)”, in assay [4], the binding result is “binds”.
